Results taken from PubChem BioAssay AID1645887 (National Center for Advancing Translational Sciences (NCATS), 2021).
Values joined by “and” are separate entries in the source; they are usually repeats but may differ in a detail not shown here. Identical values can stand only once. Hit rate of the full screen: of about 16,000 compounds, about 40 (0.2%) were called active. Another 1% or so got no clear call; they are omitted. The call rests on the fitted dose curve; in most records, active means well fitted activation curve with a large enough effect; inconclusive means small, poorly fitted or top-dose-only effect, or another doubt; inactive means no such curve, though single readings can be large or run the other way. This is one part of the list.

target: Rap guanine nucleotide exchange factor 4 (Homo sapiens) (UniProt Q8WZA2); experiment: Validation qHTS for agonist of cAMP-regulated guanine nucleotide exchange factor 4 (EPAC2); conditions: EPAC2 Rap1B BODIPY-GDP exchange, fluorescence; activation: hits give high values;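 further: exchange makes BODIPY-GDP fluorescence drop when released from Rap1B; series mostly up to about 150 µM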
UniProt Q8WZA2, sequence (Q8WZA2 whole entry, looked up): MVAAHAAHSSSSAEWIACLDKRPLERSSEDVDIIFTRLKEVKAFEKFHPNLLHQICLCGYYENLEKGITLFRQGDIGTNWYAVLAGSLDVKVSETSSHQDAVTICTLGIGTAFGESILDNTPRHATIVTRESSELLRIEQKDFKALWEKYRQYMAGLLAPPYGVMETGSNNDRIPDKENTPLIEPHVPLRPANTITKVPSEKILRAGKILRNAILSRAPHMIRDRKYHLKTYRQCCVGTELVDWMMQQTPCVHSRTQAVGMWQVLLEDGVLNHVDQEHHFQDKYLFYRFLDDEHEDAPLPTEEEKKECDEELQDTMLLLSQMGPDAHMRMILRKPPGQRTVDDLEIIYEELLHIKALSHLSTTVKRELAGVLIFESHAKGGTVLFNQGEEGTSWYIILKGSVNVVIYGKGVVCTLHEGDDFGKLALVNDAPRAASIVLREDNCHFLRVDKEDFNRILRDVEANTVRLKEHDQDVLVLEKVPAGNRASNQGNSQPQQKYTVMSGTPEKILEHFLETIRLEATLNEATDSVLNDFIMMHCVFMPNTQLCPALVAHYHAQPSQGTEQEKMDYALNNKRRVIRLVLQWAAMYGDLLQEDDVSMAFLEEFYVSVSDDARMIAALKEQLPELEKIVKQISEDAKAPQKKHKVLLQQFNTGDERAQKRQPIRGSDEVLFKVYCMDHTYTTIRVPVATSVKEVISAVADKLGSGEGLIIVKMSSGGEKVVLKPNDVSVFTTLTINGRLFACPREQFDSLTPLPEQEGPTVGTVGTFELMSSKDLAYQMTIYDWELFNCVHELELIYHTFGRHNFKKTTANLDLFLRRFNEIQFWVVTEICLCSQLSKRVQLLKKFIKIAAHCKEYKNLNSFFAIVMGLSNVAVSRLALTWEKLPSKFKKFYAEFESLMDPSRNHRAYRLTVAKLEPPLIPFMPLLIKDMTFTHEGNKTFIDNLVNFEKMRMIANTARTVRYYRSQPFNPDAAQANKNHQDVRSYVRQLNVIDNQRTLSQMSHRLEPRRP
Procedure, shortened: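 Fluorescent exchange assay: 100 nM EPAC2 with 250 nM RAP1B-BODIPY-GDP and 50 uM GDP; compound added, 5 min at room temperature, then read (ex 480/em 540 nm) every 5 min for 30 min. Normalized to 6.5 mM cAMP agonist control.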
On the % scale 0 is the no-effect control and ±100 the full control effect.

activation, inactive:
CC(=O)OCC(=O)[C@@]1(O)[C@H](OC(C)=O)C[C@H]2[C@@H]3CCC4=CC(=O)C=C[C@]4(C)[C@@]3(F)[C@@H](O)C[C@@]21C -5.06%
COCC1CCCN(Cc2ccc3c(c2)CN(C(=O)c2cnn(C(C)C)c2)CCO3)C1 (stereo not drawn) -1.33%
O=S1(=O)CCOC[C@H](CC2CCCCC2)N1Cc1ccc(F)cc1 -27.3%
Cc1ccc2c(c1)CN(CCC(=O)NCc1cc(C)n(C)n1)CC(C)O2 (stereo not drawn) 1.79%
Cc1nc2cc(NC(=O)[C@@H]3C[C@@H](Sc4ccccn4)CN3Cc3cccc(Cl)c3)ccc2s1 0.0431%
O=C(C[C@H]1C(=O)N(c2ccccc2)C[C@@H]1Cc1ccccc1)Nc1ccccc1 -11%
c1ccc2c(Nc3ccncc3)nc(-c3ccc4c(c3)OCO4)nc2c1 -7.97%
CCCCNC(=O)O[C@H]1C[C@@H]2CCN3C(=O)CCC[C@H]([C@H]1Cc1ccccc1)[C@H]23 -12.8%
NC(=O)N1c2ccccc2CC(=O)c2ccccc21 -7.75%
COC(=O)C1CCCCN1Cc1nc(N2CCCCC2)c2cc(OC)c(OC)cc2n1 (stereo not drawn) -15.4%
O=c1c(CCc2ccccc2)nc2cnc(N3CCNCC3)nc2n1Cc1ccc(F)cc1 -33.2%
Nc1ccc(Cc2ccc(C=O)cc2)cc1 -12.1%
O=C(O)CCC(=O)O -1.89%
CCO[C@H]1[C@H](NC(=O)c2cccnc2)c2ccccc2C12CCN(C(=O)c1cc(C)n(C)n1)CC2 4.53%
NC1=NCC2c3ccccc3Cc3ccccc3N12 (stereo not drawn) -4.47% and -18.4%
CC(=O)Nc1ccccc1-c1nc(CNC(=O)c2ccc(-c3ccccc3F)cc2)c(C)o1 -14.7%
Cc1ncc2c(c1CNC(=O)/C=C/c1cccs1)CCN(C(=O)C1CC(=O)OC13CCCCC3)C2 (stereo not drawn) -7.26%
CSCCC(N)C(=O)O (stereo not drawn) -14%
O=C(c1csnn1)N1CCC2(CC1)CCN(c1ccncc1)CC2 -15.1%
CCCCCCCCCCCCCCCCCCN(CCCCCCCCCCCCCCCCCC)c1ccccc1 -4.23%
O=C(Nc1nccs1)[C@@H]1CC=C[C@@H]2CCN(Cc3ccc(Cl)c(Cl)c3)C(=O)[C@@H]21 2.91%
C[C@]12O[C@H](C[C@]1(O)CO)n1c3ccccc3c3c4c(c5c6ccccc6n2c5c31)CNC4=O 6.79%
Cc1nc2ccc(NC(=O)Nc3ccnc4cccnc34)cc2o1 18.1%
C[N+]1(CC(=O)c2ccc(Br)cc2)CCOCC1 -25%
O=c1c(O)c(Br)ccc2c(Br)c(O)c(O)c(O)c12 -10.1%
C[C@@H](N)C(=O)O -9.64% and -0.696%
C[N+]1(CC(=O)c2ccc(Cl)c(Cl)c2)CCOCC1 -13.6%
CC(C)Oc1ccc(C(=O)NCC2Cc3cc(Cl)cc(-c4ncccn4)c3O2)cc1 (stereo not drawn) -7.68%
COc1ccc2c(c1)CCc1cnc(-n3ncc(C(=O)NCCN4CCOCC4)c3C)nc1-2 -4.54%
CC(C)[C@@H](N)C(=O)O -1.75%
O=C(O[C@H]1[C@H](Cc2ccccc2)NS(=O)(=O)[C@H]2CC3C=C[C@]12O3)c1ccc(Br)cc1 -20.3%
Cc1nn(C)c(Cl)c1CN1CCOc2ccc(CN3CCC(Oc4cccnc4)CC3)cc2C1 -17%
OC[C@@H](O)COc1cccc2ccccc12 -15.6%
Cc1noc(C)c1-c1cncnc1NC1CC1 -7.98%
CCCC(=O)O[C@]1(C(=O)CO)CC[C@H]2[C@@H]3CCC4=CC(=O)CC[C@]4(C)[C@H]3[C@@H](O)C[C@@]21C -8.47%
COc1cccc(N2[C@@H](CC(C)=O)c3ccc(/C=C/C(C)=O)cc3S2(=O)=O)c1 -19.4%
COc1ccc(CNc2ccnc(-c3cccc(C#N)c3)n2)c(OC)c1 -14.3%
CN(C)c1nc(N)c(C(=O)N=C(N)N)nc1Cl -5.57%
O=c1[nH]c(=O)n([C@H]2C[C@H](O)[C@@H](CO)O2)cc1C(F)(F)F -28.9%
CC(=O)OC1CC[C@@]2(C)C(CC[C@@]3(C)C2CC=C2C4CC(C)(C)CC[C@]4(C)CC[C@@]23C)C1(C)C (stereo partly drawn) 7.28%
CN(C)Cc1ccccc1-c1nc(NCc2cccs2)c2ccccc2n1 -8.49%
Cn1cc(-c2nc3cnc(N4CCNCC4)nc3n(Cc3ccc(F)cc3)c2=O)c2ccccc21 6.96%
CCOC(=O)C1=C(N)Oc2ccc(Br)cc2[C@@H]1[C@@H](C#N)C(=O)OCC -6.43%
Cc1nnc(SCC2=C(C(=O)O)N3C(=O)[C@@H](NC(=O)Cn4cnnn4)[C@H]3SC2)s1 -3.13% and -19.8%
CCCCCCCCCCCCCCCCOCCOCCOCCOCCOCCOCCOCCOCCOCCOCCOCCOCCOCCOCCOCCOCCOCCOCCOCCOCCO -24.3%
Cc1ccc(C(=O)NCCc2nnc3n2CCN(C(=O)c2ccnc(Cl)c2)CC3)cc1 -22.4%
COc1ccc(C(=O)N2CCC3(CC2)CCN(C(c2ccccc2)c2ccccc2)CC3)cc1 -11.2%
CN(C)CC[C@@H](c1ccc(Br)cc1)c1ccccn1 -8.71% and -32.8%
CCCC[C@H]1COCCS(=O)(=O)N1Cc1ccc(Br)cc1 -9.8%
N#CCCn1c(=O)cnc2cnc(N3CCOCC3)nc21 -20.8%
N#Cc1ccccc1-c1ccc2ncnc(NCc3cccnc3)c2c1 -15.8%
CCC(C)[C@@H](N)C(=O)O (stereo partly drawn) -3.86% and 8.19%
C1=C(c2ccc3c(c2)CN(Cc2cccn2-c2ncccn2)CCO3)Cc2ccccc21 -16.1%
CCNc1ncc2nc(-c3ccc(F)cc3)c(=O)n(CCc3ccccc3)c2n1 -0.0022%
COc1ccc(CN2CCc3nnc(CNC(=O)c4cc(C)oc4C)n3CC2)c2ccccc12 -30.9%
COc1cc(=O)n2c(c1C(=O)NCc1ccc3c(c1)OCO3)CCN(C(=O)c1ccccc1F)CC2 -10.5%
O=S(=O)(c1ccccc1)N1CCC2(CCCN(c3ccccn3)C2)CC1 -0.282%
COCCn1c(=O)c(CCc2ccccc2)nc2cnc(OCc3ccccc3)nc21 1.87%
Cc1noc(C)c1-c1nccc(N2CCN(C)CC2)n1 -3.41%
COCC(=O)Nc1cc(C(=O)NC2Cc3ccccc3C2)cc2nc(-c3cccnc3)n(C)c12 1.31%
C=C(C)C1CC=C(C(=O)O)CC1 (stereo not drawn) -6.72% and -22%
N[C@H](C(=O)O)[C@@H]1C[C@@H]1C(=O)O -6.19% and -12.1%
O=C1[C@H](Cc2ccccc2)NCCCC[C@H](c2ccco2)N1Cc1ccccc1 -36.5%
O=c1[nH]c2cc(Cl)c(Cl)cc2[nH]c1=O -6.74% and -1.04% and -11.8%
COc1ccc(C(=O)N2CCC[C@@]3(CCN(CC(C)C)C3)C2)cc1 -20.4%
N#Cc1cccc(NC(=O)N2CCCC3(CCN(C(=O)c4cccc(F)c4)CC3)C2)c1 -11.3%
CN(Cc1ccco1)c1ncncc1-c1cccc(NS(C)(=O)=O)c1 3.47%
COc1ccc2nc(S(=O)Cc3ncc(C)c(OC)c3C)[nH]c2c1 (stereo not drawn) 0.367%
Cc1nc2c(O)cccc2c(=O)[nH]1 1.07%
CC1(C)[C@H](O[C@H]2O[C@H](C(=O)O)[C@@H](O)[C@H](O)[C@H]2O[C@@H]2O[C@H](C(=O)O)[C@@H](O)[C@H](O)[C@H]2O)CC[C@@]2(C)[C@H]1CC[C@]1(C)[C@H]2C(=O)C=C2[C@H]3C[C@@](C)(C(=O)O)CC[C@]3(C)CC[C@]21C 0.629%
C[C@@H](N)CCCP(=O)(O)O -1.34%
CN(C)Cc1ccccc1-c1ccc2ncnc(N(C)Cc3ccco3)c2c1 -9.35%
COc1ccc(CNc2ncnc3ccc(-c4ccc5c(c4)OCO5)cc23)c(OC)c1 -3.39%
CC(C)[C@@H]1CC[C@@H](C)CC1=O -20.2%
CCOC(=O)/C=C/c1ccc2oc3ccccc3c(=O)c2c1 -29.5%
CC(C)C1COc2cc3oc(=O)ccc3cc2O1 (stereo not drawn) -29.7%
COc1ccc(C(=O)N2CCC3(CCCN(C(=O)NC(C)C)C3)CC2)cc1 -7%
CN(C)c1ncc2nc(CCc3ccccc3)c(=O)n(Cc3ccc(F)cc3)c2n1 -7.94%
O=C(Cn1cncn1)N1CCOc2ccc(CN3CCN(c4ccccc4)CC3)cc2C1 -4.09%
Cc1cnc(CNc2ncncc2-c2ccccc2CN(C)C)cn1 -5.17%
NC(CSCC(=O)O)C(=O)O (stereo not drawn) -2.18%
O=C(Nc1ccc(/C=C/c2ccc(NC(=O)c3cc(S(=O)(=O)O)c4cccnc4c3O)cc2S(=O)(=O)O)c(S(=O)(=O)O)c1)c1cc(S(=O)(=O)O)c2cccnc2c1O -38.7%
COc1ccc2[nH]cc(CCNc3ncncc3-c3cccc(NS(C)(=O)=O)c3)c2c1 6.24%
